Test results reported in PubChem BioAssay AID759 (NMMLSC, 2007).
Screen size: about 190,000 compounds; about 270 (0.14%) were called active. The shares of active, inactive and inconclusive entries below differ from those in the screen.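 The calls were made as follows: active = GTP binding activity at least 20% away from the 100% baseline, either lowered as inhibitor or raised as activator; inconclusive = flagged as likely green fluorescent, judged across all proteins in the well; inactive = the rest.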

These compounds were tested against GTPase HRas (Homo sapiens) (UniProt P01112) (assay: HRas wt fluorescent GTP binding changes, either direction – biochemical, wildtype, bead-based flow cytometry, multiplex, primary screen (AID 759;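 also: 0% = unlabeled GTP competition control and 100% = no-compound control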)). Conditions: GST-Ras wt beads, Bodipy-FL-GTP binding, at 10 µM, actives lie on both sides.
Sequence of UniProt P01112 (P01112 whole entry, looked up): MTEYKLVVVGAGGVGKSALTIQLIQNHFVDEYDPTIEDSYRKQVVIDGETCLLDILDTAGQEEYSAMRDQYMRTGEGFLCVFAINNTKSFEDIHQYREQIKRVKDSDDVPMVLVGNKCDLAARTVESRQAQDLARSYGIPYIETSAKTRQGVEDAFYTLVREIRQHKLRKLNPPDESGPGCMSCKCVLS
For CCOC(=O)C1(Cc2ccccc2)CCN(Cc2ccc3c(c2)OCCO3)CC1, the GTP binding activity was inactive: 98%.
COC(=O)c1c(N2C(=O)[C@H]3[C@@H](C2=O)[C@]2(C(=O)Nc4c(C)cc(C)cc42)N2CCC[C@@H]32)sc(C)c1C was tested, and the GTP binding activity was active: 120% [activator].
For COc1ccc(C(=O)O/N=C(\N)Cc2ccc(Cl)c(Cl)c2)cc1OC, the GTP binding activity was inconclusive: 102%.
In the case of COC(=O)COc1ccc(S(=O)(=O)Nc2ccc3c(c2)OCO3)cc1, the GTP binding activity was inconclusive: 104%.
For Cc1cccc(C2(c3cccc(C)c3)CC2C(=O)Nc2ccc([N+](=O)[O-])cc2O)c1 (stereo not drawn), the GTP binding activity was inactive: 100%.
For O=c1c2ccccc2nc2c3ccccc3c(NCc3ccccn3)nn12, the GTP binding activity was active: 76%.
In the case of Cc1n[nH]c(=O)nc1N1CCN(c2ccccc2)CC1, the GTP binding activity was inconclusive: 92%.
O=S(=O)(c1ccc2c(c1)oc1ccccc12)N1CCOCC1 was tested, and the GTP binding activity was inconclusive: 103%.
With Cc1cc(C2(c3cc(C)c(NC(=O)CN4CCOCC4)c(C)c3)CCCCC2)cc(C)c1NC(=O)CN1CCOCC1 the GTP binding activity was inconclusive: 108%.
CCNC(=O)NC(=O)COC(=O)CCc1nc(=O)c2ccccc2n1C was tested, and the GTP binding activity was inactive: 98%.
O=C(CSc1ccc2c(c1)OCCO2)Nc1cccnc1 was tested, and the GTP binding activity was inconclusive: 95%.
In the case of COc1ccc(-n2cccc2/C=C2\C(=N)N3N=C(c4ccco4)SC3=NC2=O)cc1, the GTP binding activity was inconclusive: 86%.
In the case of COc1ccccc1NC(=O)C1CC(=O)OC1c1ccccc1 (stereo not drawn), the GTP binding activity was inconclusive: 103%.
Cc1nnc(SCC(=O)c2ccc(S(=O)(=O)N3CCOCC3)cc2)n1-c1ccccc1 was tested, and the GTP binding activity was inconclusive: 100%.
For Cc1ccc(Oc2ccc(-c3nnc(-c4ccccc4)o3)cc2[N+](=O)[O-])cc1C, the GTP binding activity was inactive: 99%.
COc1ccc(C2CC(c3ccc4ccccc4c3)=NN2C(=O)CN2C(=O)CCC2=O)cc1 (stereo not drawn) was tested, and the GTP binding activity was inactive: 95%.
With O=C(Cn1cnc2c(nnn2Cc2ccc(F)cc2)c1=O)NCc1ccc2c(c1)OCO2 the GTP binding activity was inconclusive: 101%.
COc1cccc2cc(C(=O)NNC(=O)c3ccc(Br)cc3)c(=O)oc12 was tested, and the GTP binding activity was inactive: 93%.
In the case of CC1CC(C)(C)CC2(C1)NC(=O)N(CC(=O)NC1CCCc3ccccc31)C2=O (stereo not drawn), the GTP binding activity was inactive: 98%.
For COc1ccc(/C=C/C(=O)NC(=S)Nc2cc([N+](=O)[O-])ccc2O)cc1OC, the GTP binding activity was inconclusive: 89%.
O=[N+]([O-])c1cccc(-c2nnc(SCc3cccnc3)o2)c1 was tested, and the GTP binding activity was inconclusive: 94%.
With COc1ccccc1C(=O)NCCc1c(C)[nH]c2c(C)ccc(F)c12 the GTP binding activity was inactive: 99%.
For Cn1c(=O)c2c(nc(Br)n2CCCc2ccccc2)n(C)c1=O, the GTP binding activity was inconclusive: 92%.
With O=c1c2ccccc2oc2nc(-c3ccco3)n(Cc3ccccc3)c(=O)c12 the GTP binding activity was inconclusive: 105%.
With Cc1cc(NC(=O)CSc2nc(-c3ccccc3)c(C#N)c(=O)[nH]2)no1 the GTP binding activity was active: 75%.
Cc1cc(C)c2c(n1)sc1c(O)cc(=O)[nH]c12 was tested, and the GTP binding activity was inactive: 100%.
For O=C(c1cnccn1)N1CCc2ccccc2C1, the GTP binding activity was inactive: 102%.
For Cc1ccc(-c2nnc(SCC(=O)NC(=O)Nc3ccc(C)cc3C)n2N)cc1, the GTP binding activity was inconclusive: 100%.
With Cc1cc(=O)n2nc(N3CCCC3C(=O)NCc3ccccn3)sc2n1 (stereo not drawn) the GTP binding activity was inconclusive: 102%.
In the case of CCOc1ccc(Br)cc1C1C(C(=O)OC)=C(N)Oc2cc(N(C)C)ccc21 (stereo not drawn), the GTP binding activity was inactive: 104%.
CCc1c(C)sc(NC(=O)Cn2nc(C)c([N+](=O)[O-])c2C)c1C(N)=O was tested, and the GTP binding activity was inactive: 98%.
For Nc1nc(-c2ccccc2)nc2sc3c(c12)CCCC3, the GTP binding activity was inactive: 95%.
With CCn1ncc(Cl)c1C(=O)Nc1cc(Cl)ccc1Cl the GTP binding activity was inconclusive: 89%.
For COC(=O)[C@H](CCSC)NC(=O)NC1CCN(Cc2ccccc2)CC1, the GTP binding activity was inconclusive: 106%.
In the case of COC(=O)c1cccc(-n2cnnn2)c1, the GTP binding activity was inconclusive: 101%.
With CCN(CC)c1ccc(/C=C/C(=O)c2ccc(Br)cc2)cc1 the GTP binding activity was inconclusive: 129%.
With CCOC(=O)Cc1csc(NC(=O)COc2cc(C)cc(C)c2)n1 the GTP binding activity was inactive: 94%.
For CC(C)(C)NC(=O)CC(CC(=O)O)c1ccccc1 (stereo not drawn), the GTP binding activity was inconclusive: 102%.
For CC1CC(C)CN(C(=O)C(NS(=O)(=O)c2ccc(Br)s2)c2ccccc2)C1 (stereo not drawn), the GTP binding activity was inactive: 100%.
With OC(CNCc1ccccn1)c1ccccc1 (stereo not drawn) the GTP binding activity was inconclusive: 101%.
With CCOc1cc(CNc2ccc3c(c2)OCCO3)cc(Br)c1OC the GTP binding activity was inconclusive: 103%.
With Cc1ccc2nc(NC(=O)C3CCN(S(=O)(=O)c4cc([N+](=O)[O-])ccc4Cl)CC3)sc2c1 the GTP binding activity was inconclusive: 101%.
For O=C(/C=C/c1ccco1)Oc1cc(Br)cc(/C=N/NC(=O)c2ccccc2O)c1, the GTP binding activity was inconclusive: 98%.
COc1cccc(NC(=O)CSC(N)=O)c1 was tested, and the GTP binding activity was inactive: 99%.
For Cc1ccnc2nc(C(=O)OCCOc3ccc(Cl)cc3)nn12, the GTP binding activity was inconclusive: 91%.
CCOC(=O)N1CCN(C(=O)C(c2ccccc2)c2ccccc2)CC1 was tested, and the GTP binding activity was inconclusive: 102%.
In the case of CCCCn1c(=O)[nH]c(=O)c2c1nc(-c1ccc(C#N)cc1)n2C1CCCC1, the GTP binding activity was inconclusive: 104%.
Cc1nc2c(nnn2Cc2ccccc2)c(=O)[nH]1 was tested, and the GTP binding activity was inconclusive: 86%.
CC(=O)Nc1cn(C(C)=O)c(C)n1 was tested, and the GTP binding activity was inconclusive: 107%.
For COc1ccc(-n2nc(C(=O)NCC(=O)Nc3ccccn3)c3ccccc3c2=O)cc1Cl, the GTP binding activity was inconclusive: 113%.
In the case of CCN1CCN(CC(=O)N2N=C(c3ccc(OC)cc3)CC2c2ccc(OC)cc2)C(=O)C1=O (stereo not drawn), the GTP binding activity was inactive: 96%.
In the case of Cc1cccc(NC2=CC(=O)CC(C)(C)C2)c1C, the GTP binding activity was inactive: 89%.
For O=C(COc1ccc(Cl)cc1Cl)N1CCCCCC1, the GTP binding activity was inconclusive: 105%.
With O=C(Cc1ccc(F)cc1)Nc1ccccc1Sc1ccccc1 the GTP binding activity was inconclusive: 99%.
For O=C(COC(=O)/C=C/c1ccc([N+](=O)[O-])cc1)NC(c1ccccc1)c1ccccc1, the GTP binding activity was inactive: 97%.
Cc1cc(-c2ccccc2)[nH]c(=O)c1S(=O)(=O)c1ccc(Cl)cc1 was tested, and the GTP binding activity was inconclusive: 102%.
COC(=O)c1cccn(CC(=O)c2ccc(Cl)cc2)c1=O was tested, and the GTP binding activity was inactive: 99%.
O=[N+]([O-])c1ccc(C=Nc2ccc(Cl)cc2Cl)s1 was tested, and the GTP binding activity was inconclusive: 111%.
With CN1CC(=O)NC1=NC(=O)c1ccc(Cl)c(S(=O)(=O)N2CCCCCC2)c1 the GTP binding activity was inactive: 94%.
For Cc1cc(C)n(-c2nc(SCC(=O)Nc3nccs3)c3c4c(sc3n2)COC(C)(C)C4)n1, the GTP binding activity was inconclusive: 97%.
With Cc1ccc2cccc(OCC(=O)N3CC(C)CC(C)C3)c2n1 (stereo not drawn) the GTP binding activity was inconclusive: 94%.
For CCOC(=O)N1CCC(Nc2ccc3nnc(-c4ccccc4)n3n2)CC1, the GTP binding activity was inconclusive: 91%.
With N#CCc1nn(-c2ccccc2)c(N)c1C#N the GTP binding activity was inconclusive: 96%.
For Cc1cc(C(=O)NNC(=S)NC(C)c2ccccc2)c2ccccc2n1 (stereo not drawn), the GTP binding activity was inconclusive: 122%.
In the case of CSC1=NC2(CCCCC2)CC12C=CC(=O)C=C2, the GTP binding activity was inactive: 98%.
In the case of COc1ccc(NCc2nnc(SCC(=O)NNC(=O)c3ccc(C)cc3)n2C)cc1, the GTP binding activity was inactive: 97%.
CSc1nc2ccc(NC(=O)c3c(F)cccc3F)cc2s1 was tested, and the GTP binding activity was inconclusive: 94%.
For N#Cc1ccc(-c2ccc(F)cc2)nc1Sc1ccccc1, the GTP binding activity was inconclusive: 107%.
Cc1nc2ccccc2nc(=O)c1NNc1ccc([N+](=O)[O-])cc1 was tested, and the GTP binding activity was inconclusive: 93%.
In the case of Cc1ccc(N=Nc2c(=O)[nH]n3c(C)cc(C)nc23)cc1, the GTP binding activity was inactive: 97%.
With Nc1[nH]ncc1C(=O)Nc1cccc(C(F)(F)F)c1 the GTP binding activity was inconclusive: 106%.
In the case of CCCC/C(O)=C1\C(=O)CC(C)(C)CC1=Nc1ccccc1OC, the GTP binding activity was inconclusive: 105%.
In the case of CCOC(=O)C1CCCN(C(=O)CCCOc2cc(=O)n(C)c3ccccc23)C1 (stereo not drawn), the GTP binding activity was inconclusive: 96%.
In the case of Nc1nnc(-c2ccc(Cl)cc2Cl)s1, the GTP binding activity was inconclusive: 89%.
In the case of COc1ccc(Cl)cc1NC(=O)CN1CCc2ccccc21, the GTP binding activity was inactive: 98%.
In the case of Oc1c(CN2CCN(c3ccccn3)CC2)cc(Cl)c2cccnc12, the GTP binding activity was inconclusive: 101%.
COc1ccc(C(=O)CSc2ccc3nnc(-c4cccnc4)n3n2)cc1 was tested, and the GTP binding activity was inactive: 98%.
With O=C(COc1ccc(C(=S)N2CCOCC2)cc1)N1CCCC1 the GTP binding activity was inconclusive: 104%.
In the case of CCc1ccccc1NC(=O)N1C2CCCC1CC(NC(C)=O)C2 (stereo not drawn), the GTP binding activity was inactive: 104%.
Clc1ccc(-c2n[nH]c3c2CCC3)cc1Cl was tested, and the GTP binding activity was inconclusive: 100%.
O=C(CN1CCN(c2ccc(F)cc2)CC1)NC(=O)NCc1ccco1 was tested, and the GTP binding activity was inactive: 102%.
For CCOC(=O)c1cc(NC(=O)Nc2cc(C)ccn2)c(C)nc1C, the GTP binding activity was inconclusive: 91%.
For CC(=O)c1cccc(NC(=O)Cn2cc3c(n2)CCCC3)c1, the GTP binding activity was inconclusive: 101%.
For Nc1ccc(S(=O)(=O)Nc2ccc(S(N)(=O)=O)cc2)cc1, the GTP binding activity was inconclusive: 95%.
For O=C(COC(=O)c1cc(S(=O)(=O)N2CCCCC2)ccc1N1CCOCC1)NCCc1ccc(F)cc1, the GTP binding activity was inactive: 88%.
For CCOC(=O)c1c(NC(=O)c2c(-c3ccccc3)noc2C)sc(C)c1-c1ccccc1, the GTP binding activity was inconclusive: 105%.
For Nc1n[nH]c(-c2ccccc2)n1, the GTP binding activity was inconclusive: 105%.
With Clc1ccccc1N=C1NN=C(c2cccs2)CS1 the GTP binding activity was inactive: 97%.
For Cc1cc(C)nc(NNC(=O)NC2CCCCC2)n1, the GTP binding activity was inconclusive: 93%.
In the case of Cc1cc(C)c(NC(=O)Cn2cc3c(n2)CCCC3)c(C)c1, the GTP binding activity was inconclusive: 100%.
CCN1/C(=C/C=C/c2oc3ccc(-c4ccccc4)cc3[n+]2CC)Oc2ccc(-c3ccccc3)cc21 was tested, and the GTP binding activity was inconclusive: 805%.
For Cc1ccccc1C(=O)NC1CCN(Cc2nnnn2Cc2ccccc2)CC1, the GTP binding activity was inconclusive: 105%.
With N/C(=N\OC(=O)C1CCCCC1)c1cccnc1 the GTP binding activity was inconclusive: 105%.
